We go through 87 compounds from PubChem BioAssay AID463173 (ICCB-Longwood Screening Facility, Harvard Medical School, 2010).

Among all 52,000 compounds or so, about 1,700 (3.3%) were called active. Cut-off read from the data, not from the text of the source: active = survival mostly below about 52% (no sharp cut-off); inactive = mostly above about 56%. The list shows a part of the results.

The subject of the assay is Wild type. The assay can be described thus: S. aureus survival, RN4220 and DeltatarO strains – OD600, teichoic acid synthesis inhibitors, primary screen (AID 463173). The following applies: S. aureus RN4220 wild type/DeltatarO growth, OD600, 18 h, stronger effect = lower value, screened at 18.75 µg/mL (by protocol).
`CC1=C(C(=O)Nc2cc(Cl)ccc2C)C(c2ccco2)n2ncnc2N1` (configuration not stated): the survival was inactive: 81%.

Take `CC(CC(=O)NC1CCCC1)c1ccccc1` (configuration not stated): the survival is inactive: 108%.

Regarding `CCSc1nnc2c(n1)OC(c1sccc1C)N(C(C)=O)c1ccccc1-2` (configuration not stated), the survival was inactive: 70%.

As to `Cc1ccc(OCC(=O)Nc2ccc3nc(SCC(N)=O)sc3c2)cc1`, the survival was inactive: 84%.

As for `COc1ccc(Cn2c(=O)c3oc4ccccc4c3n(Cc3cccc(F)c3)c2=O)cc1`, the survival is inactive: 94%.

As to `CCOC(=O)C1CCCN(S(=O)(=O)c2cc3c(cc2C)NC(=O)CO3)C1` (configuration not stated), the survival was inactive: 84%.

In the case of `O=C(NCc1cccc(F)c1)c1ccc2nc(N3CCCCC3)sc2c1`, the survival is inactive: 89%.

Consider `Cc1ccc(NC(=O)C2CCCN(S(=O)(=O)c3c(C)n[nH]c3C)C2)cc1Cl` (configuration not stated), for which the survival was inactive: 90%.

Consider `COC(=O)c1c(C)oc2ccc(N(C(=O)Oc3ccccc3)S(=O)(=O)c3ccc(C(C)(C)C)cc3)cc12`, for which the survival is inactive: 78%.

For the compound `O=C(NCCc1ccc(Cl)cc1)c1ccc2c(c1)N(Cc1c(F)cccc1Cl)C(=O)CS2`, the survival was inactive: 76%.

For the compound `Cc1c(C)n(C)c2ccc(C(=O)NCCc3ccc(Cl)cc3)cc12`, the survival is inactive: 74%.

On to `CCOC(=O)COc1ccc(CC)cc1C(=O)c1ccn2nc(-c3ccc(Cl)cc3)cc2n1`, for which the survival was inactive: 72%.

As for `Cc1ccc(-n2nc3ccc(NC(=O)Cc4ccc(Cl)cc4)cc3n2)cc1`, the survival is inactive: 97%.

As to `CCOC(=O)c1c(NC(=O)C(C)Sc2cn(CCNC(=O)c3ccccc3OC)c3ccccc23)sc2c1CCC2` (configuration not stated), the survival was inactive: 90%.

For `COC(=O)c1sc2cccc(F)c2c1S(=O)(=O)NCc1ccc(Cl)cc1`, the survival is inactive: 81%.

As for `CCC1Oc2ccc(C)cc2N(CC(=O)N(Cc2ccc(F)cc2)CC2CCCO2)C1=O` (configuration not stated), the survival was inactive: 109%.

On to `CCOc1ccc(NC(=O)Cn2c(=O)n(CCCC(=O)NCc3ccc4c(c3)OCO4)c(=O)c3ccccc32)cc1`, for which the survival is inactive: 97%.

As to `Cc1ccc(CSc2ncc(Cl)c(C(=O)Oc3ccc(F)cc3)n2)cc1`, the survival is inactive: 89%.

Turning to `COc1ccc(-c2noc(N3CCN(c4ccc(C)cc4)C(C)C3)n2)cc1OC` (configuration not stated), the survival is inactive: 78%.

`COc1cccc(CNC(=O)CSC2=Nc3ccccc3C3=NC(C)C(=O)N23)c1OC` (configuration not stated): the survival was inactive: 135%.

On to `O=C(Cn1c(C(=O)N2CCOCC2)cc2sccc21)c1ccccc1`, for which the survival is inactive: 110%.

In the case of `CCCCS(=O)(=O)c1oc(-c2ccc(F)cc2)nc1S(=O)(=O)c1ccccc1`, the survival was active: 7%.

Consider `Fc1ccc(-c2cc(C(F)(F)F)nc(NCc3ccccc3)n2)cc1`, for which the survival was inactive: 93%.

For `COc1ccccc1N1CCN(CCCNC(=O)c2cnn(-c3ccc(C)c(C)c3)c2C2CCN(C(=O)OC(C)(C)C)CC2)CC1`, the survival was inactive: 68%.

In the case of `COc1ccccc1CNC(=O)c1cnc2c(-c3ccccc3)c(C)nn2c1C`, the survival is inactive: 70%.

`O=C(c1ccc2c(c1)N(Cc1ccc(F)cc1)C(=O)c1ccccc1S2(=O)=O)N1CCN(c2ccccn2)CC1`: the survival is inactive: 153%.

`COc1ccc(C(=O)Nc2ccccc2-c2nc(-c3ccc(OC)cc3)no2)cc1`: the survival was inactive: 89%.

As to `O=C(c1cnc(N2CCCCC2)c2ccccc12)N1CCN(c2ccc(Cl)cc2)CC1`, the survival was inactive: 73%.

Take `CCc1nn(CC(=O)N2CCN(c3ccc(Cl)cc3)CC2)c(=O)c2cc3occc3n12`: the survival is inactive: 84%.

With `CCn1c(=O)n(-c2cccc(Cl)c2)c(=O)c2sc3ccccc3c21`, the survival is inactive: 86%.

`O=C(Nc1ccc(Cl)cc1)c1cc2nc(-c3ccc4c(c3)OCO4)cc(C(F)(F)F)n2n1`: the survival was inactive: 77%.

As to `CC(=O)c1ccc(N2CCN(C(=O)c3cc4ccc5cccnc5c4[nH]3)CC2)cc1`, the survival was inactive: 65%.

For the compound `Cc1ccc(C)c(S(=O)(=O)NCCc2csc(-c3ccc(Cl)cc3)n2)c1`, the survival is inactive: 78%.

Take `Cc1cccc(NC(=O)C2CCCN(S(=O)(=O)c3ccc4c(c3)oc(=O)n4C)C2)c1` (configuration not stated): the survival was inactive: 82%.

As for `O=S(=O)(NCCS(=O)(=O)N1CCN(c2ccccc2)CC1)c1ccc(Cl)cc1`, the survival is inactive: 82%.

Consider `Cc1sc2c(c1C)c(=O)n(CCc1ccccc1)c(=O)n2Cc1ccc(F)cc1`, for which the survival was inactive: 50%.

`COc1ccc(CCN2CC(C(=O)NCCc3ccccc3)CC2=O)cc1OC` (configuration not stated): the survival was inactive: 81%.

As for `COc1ccc(OC)c(/C=C(\C#N)c2nc3ccccc3c(=O)[nH]2)c1`, the survival was inactive: 134%.

In the case of `O=C(CCC(=O)c1ccccc1)Nc1ccc(F)c(Cl)c1`, the survival is inactive: 73%.

Take `Cc1ccc(-c2noc(=O)n2CC(=O)Nc2ccc(S(=O)(=O)N3CCCC3)cc2)cc1`: the survival is inactive: 123%.

Consider `CCCC(=O)C1=C(c2cccc(OC)c2)N(C(=O)CCC)n2c(C)nnc2S1`, for which the survival was inactive: 80%.

As for `Cc1cc(C)c2sc(N(Cc3cccnc3)C(=O)CCOc3ccccc3)nc2c1`, the survival was inactive: 111%.

Regarding `C=CCSc1nc2sc3c(c2c(=O)n1CC=C)CCCC3`, the survival is inactive: 99%.

As for `CCOC(=O)c1ccc2c(c1)[C@@H]1C=CC[C@@H]1[C@H](c1cccc(OC)c1OC)N2`, the survival is active: 0%.

Take `Cn1ccc2c(OCC(=O)Nc3ccc([N+](=O)[O-])cc3)cccc2c1=O`: the survival was inactive: 131%.

As to `CSc1ccc(CNC(=O)CN2C(=O)C3CCCCN3c3ccc(C(=O)N4CCCC4)cc32)cc1` (configuration not stated), the survival is inactive: 92%.

On to `CCOC(=O)C1CCN(C(=O)c2ccc3c(c2)sc2nc(-c4ccc(C)cc4)cn23)CC1`, for which the survival is inactive: 118%.

For `O=C(Cn1nc(-c2nccc3ccccc23)oc1=O)N1CCCc2ccccc21`, the survival is inactive: 103%.

As for `COc1ccc(OCc2nnc(SCC(=O)N(C3CCCCC3)C3CCCCC3)o2)cc1`, the survival is inactive: 98%.

As to `CCc1ccc(NC(=O)C2CCN(S(=O)(=O)c3c(C)noc3/C=C/c3ccco3)CC2)cc1`, the survival is inactive: 73%.

Turning to `FC(F)(F)c1ccc(-c2noc(-c3ccccc3Br)n2)cc1`, the survival was inactive: 89%.

In the case of `COc1ccc(NC(=O)c2cc(S(=O)(=O)NCCC3=CCCCC3)ccc2F)cc1`, the survival was inactive: 87%.

On to `COC(=O)c1cc2sc(C)cc2n1CC(=O)Nc1cccc(SC)c1`, for which the survival is inactive: 86%.

Regarding `Cc1cccc(OCC(=O)Nc2ccc3oc(-c4ccccc4F)nc3c2)c1`, the survival was inactive: 81%.

Consider `O=S(=O)(NCc1nc2cccnc2n1Cc1ccc(F)cc1)c1ccc(Cl)s1`, for which the survival is active: -6%.

Take `COc1ccc(-c2nc3cc(C(C)C)ccc3o2)cc1NC(=O)c1ccc(C)c(Cl)c1`: the survival was active: 5%.

Consider `O=C(Cc1n[nH]c(=O)c2ccccc12)NCc1ccccc1`, for which the survival was inactive: 103%.

As for `Cc1ccc(CCNC(=O)c2ccc(CS(=O)(=O)Cc3cccc(C)c3)o2)cc1`, the survival was inactive: 70%.

`CCCCCC(=O)N(c1ccc(OCC)cc1)S(=O)(=O)c1ccc2c(c1)n(C)c(=O)n2C`: the survival is inactive: 124%.

Turning to `COC(=O)C1CCN(S(=O)(=O)c2ccc(OC)cc2)CC1`, the survival is inactive: 102%.

As to `COc1ccc(CNc2ccc(-c3ccc(OC)cc3)nn2)cc1`, the survival is inactive: 114%.

As for `COc1ccc(Cn2ccc3nc(C)c(C(=O)N4CCN(c5ccccc5F)CC4)cc3c2=O)cc1`, the survival was inactive: 45%.

For the compound `Cc1ccc(NC(=O)Cn2cc3c(n2)CCC(C)C3)cc1C` (configuration not stated), the survival is inactive: 94%.

Consider `Cn1c(=S)[nH]c2c(c1=O)C1(CCCC1)Cc1ccccc1-2`, for which the survival is inactive: 99%.

As for `CCn1ccc2cc(S(=O)(=O)N3CCCN(C(=O)NCC(=O)OC)CC3)ccc21`, the survival is inactive: 128%.

Consider `COc1cccc(-c2cc(C(F)(F)F)n3nc(C)c(-c4ccccc4)c3n2)c1`, for which the survival was inactive: 85%.

As to `Cn1c(NN)nc2ccccc2c1=O`, the survival is inactive: 100%.

On to `Cc1ccccc1C(=O)NC1(C(F)(F)F)N=C(c2ccccc2)N(Cc2ccccc2)C1=O` (configuration not stated), for which the survival was inactive: 130%.

In the case of `Nc1ccc(Cc2nc3ccccc3[nH]2)cc1`, the survival was inactive: 102%.

Turning to `CCCCNC(=O)CSc1nc2cc3c(cc2c(=O)n1CCCCCC(=O)NCCc1ccc(OC)c(OC)c1)OCO3`, the survival was inactive: 67%.

As to `Cc1ccc2nc(N3CCC(C(=O)NCc4ccc(F)cc4)CC3)[nH]c2c1`, the survival is inactive: 70%.

Turning to `O=C(COc1ccccc1[N+](=O)[O-])Nc1cc(-c2nc3cc(Cl)ccc3o2)ccc1Cl`, the survival was inactive: 79%.

Take `COC(=O)c1ccc(Oc2nc3c(c(=O)n(C)c(=O)n3C)n2C(C)C)cc1`: the survival is inactive: 60%.

`CCc1ccccc1N(C)C(=O)c1nn(C)c2c1CSc1ccccc1-2`: the survival was inactive: 84%.

With `Cc1ccc2nc(COc3cccc(NC(=O)c4cccc(Cl)c4)c3)cc(=O)n2c1`, the survival is inactive: 79%.

Consider `Cc1cc(C)c(S(=O)(=O)NCc2csc(-c3ccccc3)n2)c(C)c1`, for which the survival was inactive: 38%.

As for `CCC12CN3CC(C)(CN(C1)C3c1c[nH]c3ccc(OC)cc13)C2=O` (configuration not stated), the survival was inactive: 88%.

Regarding `OC1C2CN3CCN(C2)CC1(Cc1ccccc1)C3` (configuration not stated), the survival is inactive: 110%.

As to `Cc1ccc2cccc(NC(=O)c3ccc(C#N)cc3F)c2n1`, the survival is inactive: 144%.

Consider `CCN(CC)C(=O)c1sc2c(c1C)c(=O)n(-c1ccc(C)c(C)c1)c(=O)n2Cc1cccc(Cl)c1`, for which the survival is inactive: 65%.

As to `Cc1ccc(OCC(=O)Nc2ccc3nc(SCC(=O)N4CCOCC4)sc3c2)cc1C`, the survival was inactive: 80%.

For the compound `CCOC(=O)C1CCCN(C(=O)CCS(=O)(=O)c2cc3c(cc2Cl)NC(=O)CO3)C1` (configuration not stated), the survival was inactive: 96%.

Take `CCC(Sc1nc2cc3c(cc2c(=O)n1CCCC(=O)NCc1ccc(OC)cc1)OCO3)C(=O)NCCCOC` (configuration not stated): the survival is inactive: 69%.

As to `O=C1CN(C(=O)c2ccc(S(=O)(=O)N3CCCCC3)cc2)C(c2ccc(F)cc2)c2cc(Br)ccc2N1` (configuration not stated), the survival was inactive: 100%.

Consider `CCCC(=O)C1=C(N2CCN(C3=C(C(=O)CCC)C(=O)CC(C)(C)C3)CC2)CC(C)(C)CC1=O`, for which the survival is inactive: 94%.

For the compound `Cc1ccccc1NC(=O)Cn1c(=O)n(CCC(=O)NCc2ccc3c(c2)OCO3)c(=O)c2sccc21`, the survival was inactive: 138%.

Turning to `CC(=O)N1CCc2cc(CNS(=O)(=O)c3ccc(C(C)(C)C)cc3)ccc21`, the survival is inactive: 79%.
